Experimental data reported in patent publication US20110039795A1, “2'-O,3'-N-BRIDGED MACROLIDES” (priority 2008, published 2011).
Some results were stated once for a whole list of compounds, not compound by compound. At least one read-out could not be matched to a standard name with certainty.

What follows are molecules tested on IL-6 production in LPS-stimulated murine splenocytes (assay: Inhibition of IL-6 production in LPS-stimulated murine splenocytes in vitro). Conditions: 50 μM or/and 25 μM concentration of the compound.
Assay type: cell-based, mouse

Q: CC[C@H]1OC(=O)[C@H](C)[C@@H](O[C@H]2C[C@@](C)(OC)[C@@H](O)[C@H](C)O2)[C@H](C)[C@@H](O[C@@H]2O[C@H](C)C[C@H]3[C@H]2OC(=Nc2cccc4ccccc24)N3C)[C@](C)(OC)C[C@@H](C)C(=O)[C@H](C)[C@@H](O)[C@]1(C)O (single isomer, unassigned) [Example 10, 2′-O,3′-N-(Carbonimidoyl)-3′-N-demethyl-6-O-methyl-N′-(1-naphthyl)-erythromycin A] was tested. Which “inhibition of interleukin-6 (IL-6) production in LPS-stimulated splenocytes” value (shortened to “inhibition”) did it give?
A: more than 80%

Q: Which “inhibition” value does the source give for CC[C@H]1OC(=O)[C@H](C)[C@@H](O[C@H]2C[C@@](C)(OC)[C@@H](O)[C@H](C)O2)[C@H](C)[C@@H](O[C@@H]2O[C@H](C)C[C@H]3[C@H]2OC(=NCc2ccccc2)N3C)[C@](C)(O)C[C@@H](C)CN[C@H](C)[C@@H](O)[C@]1(C)O (single isomer, unassigned) [Example 36, N′-Benzyl-2′-O,3′-N-(carbonimidoyl)-3′-N-demethyl-9-deoxo-9a-aza-9a-homoerythromycin A] here?
A: more than 80%

Q: For CC[C@H]1OC(=O)[C@H](C)[C@@H](O[C@H]2C[C@@](C)(OC)[C@@H](O)[C@H](C)O2)[C@H](C)[C@@H](O[C@@H]2O[C@H](C)C[C@H]3[C@H]2OC(=Nc2ccc(OC)cc2)N3C)[C@](C)(OC)C[C@@H](C)C(=O)N[C@H](C)[C@@H](O)[C@]1(C)O (single isomer, unassigned) [Example 23, 2′-O,3′-N-(Carbonimidoyl)-3′-N-demethyl-6-O-methyl-N′-[4-(methyloxy)phenyl]-9a-aza-9a-homoerythromycin A], which “inhibition” value is on record?
A: more than 60%

Q: Which “inhibition” value does the source give for CC[C@H]1OC(=O)[C@H](C)[C@@H](O[C@H]2C[C@@](C)(OC)[C@@H](O)[C@H](C)O2)[C@H](C)[C@@H](O[C@@H]2O[C@H](C)C[C@H]3[C@H]2OC(=NCc2ccccc2)N3C)[C@](C)(OC)C[C@@H](C)N(C)C[C@H](C)[C@@H](O)[C@]1(C)O (single isomer, unassigned) [Example 38, N′-Benzyl-2′-O,3′-N-(carbonimidoyl)-3′-N-demethyl-6-O-methyl-9-deoxo-8a-methyl-8a-aza-8a-homoerythromycin A] here?
A: more than 80%

Q: For CC[C@H]1OC(=O)[C@H](C)[C@@H](O[C@H]2C[C@@](C)(OC)[C@@H](O)[C@H](C)O2)[C@H](C)[C@@H](O[C@@H]2O[C@H](C)C[C@H]3[C@H]2O/C(=N/CCCN(CC)CC)N3C)[C@](C)(O)C[C@@H](C)CN(C)[C@H](C)[C@@H](O)[C@]1(C)O (single isomer, unassigned) [Example 4, 2′-O,3′-N-(Carbonimidoyl)-3′-N-demethyl-9-deoxo-N′-[3-(diethylamino)propyl]-9a-methyl-9a-aza-9a-homoerythromycin A], which “inhibition” value is on record?
A: more than 40%

Q: Which “inhibition” value does the source give for CC[C@H]1OC(=O)[C@H](C)[C@@H](O[C@H]2C[C@@](C)(OC)[C@@H](O)[C@H](C)O2)[C@H](C)[C@@H](O[C@@H]2O[C@H](C)C[C@H]3[C@H]2OC(=NCCCSC)N3C)[C@](C)(OC)C[C@@H](C)C(=O)N[C@H](C)[C@@H](O)[C@]1(C)O (single isomer, unassigned) [Example 22, 2′-O,3′-N-(Carbonimidoyl)-3′-N-demethyl-N′-[3-(methylthio)propyl]-6-O-methyl-9a-aza-9a-homoerythromycin A] here?
A: more than 60%

Q: Which “inhibition” value does the source give for CCN=C1O[C@H]2[C@H](O[C@@H]3[C@@H](C)[C@H](O[C@H]4C[C@@](C)(OC)[C@@H](O)[C@H](C)O4)[C@@H](C)C(=O)O[C@H](CC)[C@@](C)(O)[C@H](O)[C@@H](C)N(C)C[C@H](C)C[C@@]3(C)O)O[C@H](C)C[C@@H]2N1C (single isomer, unassigned) [Example 42, 2′-O,3′-N-(Carbonimidoyl)-3′-N-demethyl-N′-ethyl-9-deoxo-9a-methyl-9a-aza-9a-homoerythromycin A] here?
A: more than 80%

Q: Which “inhibition” value does the source give for CC[C@H]1OC(=O)[C@H](C)[C@@H](O[C@H]2C[C@@](C)(OC)[C@@H](O)[C@H](C)O2)[C@H](C)[C@@H](O[C@@H]2O[C@H](C)C[C@H]3[C@H]2OC(=Nc2ccnc4ccccc24)N3C)[C@](C)(OC)C[C@@H](C)C(=O)N[C@H](C)[C@@H](O)[C@]1(C)O (single isomer, unassigned) [Example 16, 2′-O,3′-N-(Carbonimidoyl)-3′-N-demethyl-6-O-methyl-N′-(4-quinolyl)-9a-aza-9a-homoerythromycin A] here?
A: more than 80%

Q: With CCCN1C[C@H](C)C[C@@](C)(O)[C@H](O[C@@H]2O[C@H](C)C[C@H]3[C@H]2OC(=NC(C)C)N3C)[C@@H](C)[C@H](O[C@H]2C[C@@](C)(OC)[C@@H](O)[C@H](C)O2)[C@@H](C)C(=O)O[C@H](CC)[C@@](C)(O)[C@H](O)[C@H]1C [Example 40, 2′-O,3′-N-(Carbonimidoyl)-3′-N-demethyl-N′-isopropyl-9-deoxo-9a-aza-9a-propyl-9a-homoerythromycin A] as the molecule, how does the “inhibition” value read?
A: more than 80%

Q: How did the “inhibition” value turn out when CCN=C1O[C@H]2[C@H](O[C@@H]3[C@@H](C)[C@H](O[C@H]4C[C@@](C)(OC)[C@@H](O)[C@H](C)O4)[C@@H](C)C(=O)O[C@H](CC)[C@@](C)(O)[C@H](O)[C@@H](C)C(=O)[C@H](C)C[C@@]3(C)O)O[C@H](C)C[C@@H]2N1C (single isomer, unassigned) [Example 32, 2′-O,3′-N-(Carbonimidoyl)-3′-N-demethyl-N′-ethyl-erythromycin A] was run?
A: more than 80%

Q: With CC[C@H]1OC(=O)[C@H](C)[C@@H](O[C@H]2C[C@@](C)(OC)[C@@H](O)[C@H](C)O2)[C@H](C)[C@@H](O[C@@H]2O[C@H](C)C[C@H]3[C@H]2OC(=NC(C)(C)C)N3C)[C@](C)(O)C[C@@H](C)CN(C)[C@H](C)[C@@H](O)[C@]1(C)O (single isomer, unassigned) [Example 45, 2′-O,3′-N-(Carbonimidoyl)-3′-N-demethyl-N′-(tert-butyl)-9a-methyl-9a-aza-9a-homoerythromycin A] as the molecule, how does the “inhibition” value read?
A: more than 80%

Q: CC[C@H]1OC(=O)[C@H](C)[C@@H](O[C@H]2C[C@@](C)(OC)[C@@H](O)[C@H](C)O2)[C@H](C)[C@@H](O[C@@H]2O[C@H](C)C[C@H]3[C@H]2OC(=NCc2ccccc2)N3C)[C@](C)(OC)C[C@@H](C)NC(=O)[C@H](C)[C@@H](O)[C@]1(C)O (single isomer, unassigned) [Example 35, N′-Benzyl-2′-O,3′-N-(carbonimidoyl)-3′-N-demethyl-6-O-methyl-8a-aza-8a-homoerythromycin A] was tested. Which “inhibition” value did it give?
A: more than 80%

Q: CCN=C1O[C@H]2[C@H](O[C@@H]3[C@@H](C)[C@H](O[C@H]4C[C@@](C)(OC)[C@@H](O)[C@H](C)O4)[C@@H](C)C(=O)O[C@H](CC)[C@@](C)(O)[C@H](O)[C@@H](C)NC(=O)[C@H](C)C[C@@]3(C)OC)O[C@H](C)C[C@@H]2N1C (single isomer, unassigned) [Example 15, 2′-O,3′-N-(Carbonimidoyl)-3′-N-demethyl-N′-ethyl-6-O-methyl-9a-aza-9a-homoerythromycin A] was tested. Which “inhibition” value did it give?
A: more than 40%
